Source: PubChem BioAssay AID445 (National Center for Advancing Translational Sciences (NCATS), 2006)
Out of some 110,000 compounds screened, about 40 (0.04%) were called active. Inconclusive results, whose numbers are uncertain, are shown with a selection of clear calls. Calls come from the whole dose curve; as a rule, active = well fitted curve in the direction sought with a large enough effect in the signal ratio (not every such curve was filed as active); inconclusive = small, poorly fitted or top-dose-only effect, or a change in a side signal; inactive = flat fitted curve, though single readings scatter; the % refers to the signal ratio. Potencies of inconclusive entries are doubtful fits and often do not repeat.

Assay: IkB Signaling;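 for IkBa stabilization activation: 0% = basal untreated cells and 100% = reference inhibitor full response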
Conditions: ABC-DLBCL IkBa-CBG/CBR dual luciferase ratio (green luciferase fused to IkBa over red control in OCI-Ly3 lymphoma cells), 4 h; IkBa stabilization activation: at 57.1 µM (top of the series), scaled: untreated 0%, proteasome inhibitor 100% unless noted
Method in brief: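 In this assay, an IκBα–CBG68 fusion accumulates when IKK-driven degradation is blocked; native CBR normalizes for cell number. OCI-Ly3 cells were treated 4 h with compound and doxycycline, then green and red light read after Chroma-Glo addition.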
Potency is the fitted concentration of half-maximal effect.

Row | Structure (SMILES) | IkBa stabilization activation | Potency
1 | Cc1cc(N2CCOCC2)nc2ccc(NC(=O)CCC(=O)N3CCCC(C)C3)cc12 (centres undefined) | inactive: -1.15% | –
2 | COc1ccc(OC)c(CCNC(=O)c2cnn(-c3ccc(C)cc3C)c2C2CCN(C(=O)OC(C)(C)C)CC2)c1 | inconclusive: -2.36% [signal inhibitor] | –
3 | Cc1c(C(=O)N2CCC(C)CC2)c(S(=O)(=O)Nc2cccc(C(F)(F)F)c2)c(C)n1C | inconclusive: -1.12% [signal inhibitor] | –
4 | Cc1nn(S(=O)(=O)c2ccc(C(C)(C)C)cc2)c(C)c1S(=O)(=O)N1CCC(C)CC1 | inactive: -0.626% | –
5 | COc1ccc2[nH]cc(CCNC(=O)c3cnn(-c4ccc(C)cc4)c3C3CCN(C(=O)OC(C)(C)C)CC3)c2c1 | inconclusive: -3.02% [signal inhibitor] | –
6 | COCCN1C(=O)c2oc3ccc(C)cc3c(=O)c2C12C(=O)N(C)c1ccccc12 (centres undefined) | inactive: -0.666% | –
7 | CN1CCN(c2ncnc3ccc(-c4ccccc4C#N)cc23)CC1 | inactive: -1.35% [at 11.4 µM, scaled: untreated 0%, proteasome inhibitor 100%] | –
8 | CC(C)N(Cc1ccccc1)C(=O)C1CCCN(c2ncnc3onc(-c4ccc(F)cc4)c23)C1 (centres undefined) | inconclusive: 0.111% [signal inhibitor] | –
9 | COc1ccc(OC)c(NC(=O)c2cc(C3CC3)nc3c2c(C)nn3-c2ccc(C)cc2)c1 | inconclusive: 3.81% [signal inhibitor] | –
10 | Cc1ccc(S(=O)(=O)N2CCCC(C(=O)N(Cc3cccs3)C3CC3)C2)cc1 (centres undefined) | inconclusive: 1.9% [signal inhibitor] | –
11 | COc1ccc(-c2c(C)nn3c(C(F)(F)F)cc(-c4ccccc4)nc23)cc1 | inactive: 0.151% | –
12 | O=C(CSc1nc2ccccc2c(=O)n1-c1ccccc1)NCc1ccco1 | inactive: -3.4% | –
13 | O=C(NCc1ccco1)c1ccc2c(c1)N(Cc1c(F)cccc1Cl)C(=O)c1ccccc1S2 | inactive: 0.0282% | –
14 | COc1ccc(C(=O)NCc2ccc3c(c2)CCN3C(=O)c2ccc(C)cc2)cc1 | inconclusive: -3.24% [signal inhibitor] | –
15 | COc1ccc(-n2c(=O)c(-c3cccs3)nc3cnc(Nc4cccc(OC)c4)nc32)cc1 | inactive: -4.28% [at 11.4 µM, scaled: untreated 0%, proteasome inhibitor 100%] | –
16 | O=C(CSCc1ccc(Cl)cc1)c1ccco1 | inconclusive: 4.42% [signal inhibitor] | –
17 | Cc1ccc(CNC(=O)C2CCN(Cc3nc(-c4cccc(Br)c4)oc3C)CC2)cc1 | inconclusive: 1.3% [signal inhibitor] | –
18 | CC(C)CCNC(=O)C(c1ccco1)N(Cc1ccccc1)C(=O)c1snc(C(N)=O)c1N (centres undefined) | inconclusive: 0.836% [signal inhibitor] | –
19 | Cc1cccc(-n2c(=O)c3ccccc3n(Cc3ccccc3)c2=O)c1 | inactive: 3.6% | –
20 | [N-]=[N+]=NC[C@@H]1O[C@@H](n2cnc3c(N)ncnc32)[C@@H]2O[C@@H]21 | inactive: -2.08% [at 11.4 µM, scaled: untreated 0%, proteasome inhibitor 100%] | –
21 | COc1cccc(N2CCN(C(=O)CCCCCn3c(=O)[nH]c4ccccc4c3=O)CC2)c1 | inconclusive: 0.27% [signal inhibitor] | –
22 | CC1CCn2c(nc3cc(C(=O)NCc4ccc(OC(C)C)cc4)ccc32)C1 (centres undefined) | inconclusive: -1.88% [signal inhibitor] | –
23 | CCC(C(=O)NC1CCC(C)CC1)n1nc(C)c2sc3ccccc3c2c1=O (centres undefined) | inconclusive: 4.97% [signal inhibitor] | –

Row | Structure (SMILES) | IkBa stabilization activation | Potency
24 | CCc1ccc(CNC(=O)c2cc3c(=O)n(Cc4cccs4)ccc3nc2C)cc1 | inconclusive: 2.46% [signal inhibitor] | –
25 | c1ccc(-c2nc(CSc3nnc(-c4cccs4)o3)cs2)cc1 | inconclusive: 2.86% [signal inhibitor] | –
26 | COC(=O)CCCC(=O)O | inactive: 2.15% [at 11.4 µM, scaled: untreated 0%, proteasome inhibitor 100%] | –
27 | COc1ccc(Cn2ccc3nc(C)c(C(=O)N4CCN(c5ccc(OC)cc5)CC4)cc3c2=O)cc1 | inconclusive: 14.1% [signal inhibitor] | –
28 | NC(=O)c1ccsc1NC(=O)c1nc(-c2ccccc2)n(-c2ccccc2)n1 | inconclusive: 2.52% [signal inhibitor] | –
29 | COC(=O)c1ccc(CS(=O)(=O)c2ccccc2C)o1 | inactive: -1.1% | –
30 | Cc1cc(C)c(S(=O)(=O)N2CCC(N3CCN(Cc4ccccc4)C(=O)C3=O)CC2)c(C)c1 | inactive: -0.517% | –
31 | Cc1cc(-n2c(C)cc(C(=O)CN3C(=O)NC4(CCCCCC4)C3=O)c2C)no1 | inconclusive: 2.11% [signal inhibitor] | –
32 | COc1ccc(CNCc2c(C(=O)O)c(C)n(Cc3ccccc3C)c2C)c(OC)c1 | inactive: 3.29% | –
33 | COc1ccc(-n2ncc(C(=O)N3CCN(c4cc(C)ccc4C)CC3)c2C2CCN(C(=O)OC(C)(C)C)CC2)cc1 | inconclusive: 2.98% [signal inhibitor] | –
34 | CC1(C)Cc2c(sc3nc(SCC(=O)N4CCOCC4)nc(N)c23)CO1 | inconclusive: -4.72% [signal inhibitor] | –
35 | CCS(=O)(=O)c1ncc(Cl)c(C(=O)Nc2c(C(=O)Nc3cccc(C)c3)oc3ccccc23)n1 | inconclusive: 14.1% [signal inhibitor] | –
36 | COc1ccc(C)cc1NC(=O)c1cc2c(=O)n(Cc3cccnc3)ccc2nc1C | inconclusive: -0.426% [signal inhibitor] | –
37 | COc1ccccc1N1CCN(C(CNC(=O)C(=O)NCc2ccc(F)cc2)c2cccnc2)CC1 (centres undefined) | inactive: -5.94% | –
38 | Cc1noc(C)c1CSc1nc2ccccc2n1C | inactive: -0.185% | –
39 | Cc1noc(/C=C/N(C)C)c1S(=O)(=O)N1CCc2ccccc21 | inconclusive: -5.51% [signal inhibitor] | –
40 | CCc1cccc(NC(=O)Nc2cccs2)c1 | inactive: -3.25% | –
41 | CCc1ccc(C(=O)N2CCC(c3nc(-c4ccc(S(=O)(=O)N5CCCC5)cc4)no3)CC2)cc1 | inconclusive: -0.184% [signal inhibitor] | –
42 | CCCCS(=O)CC(COc1ccc(Cl)cc1)OC(=O)c1ccccc1 (centres undefined) | inconclusive: 0.473% [signal inhibitor] | –
43 | CCOc1ccc(-c2nnc(-c3snc(-c4ccc(F)cc4)c3N=CN(C)C)o2)cc1 | inactive: 1.35% | –
44 | COc1cc(Cl)c(C)cc1NC(=O)Cn1ncc2c1-c1cc(C)ccc1OC2 | inactive: -3.84% | –
45 | CCCOc1ccc(CNC(=O)CCCn2nc(C)c3sc4ccccc4c3c2=O)cc1 | inconclusive: 1.38% [signal inhibitor] | –
46 | COc1ccc(C(=O)Nc2nnc(SCc3cc(=O)n4cccc(C)c4n3)s2)cc1 | inactive: -1.1% | –

Row | Structure (SMILES) | IkBa stabilization activation | Potency
47 | COCCOC(=O)C1=C(C)NC(C)=C(C(=O)OC(C)C)[C@@H]1c1cccc([N+](=O)[O-])c1 | inconclusive: 1.18% [signal inhibitor] | –
48 | Cc1cccc(NC(=O)C2CCN(S(=O)(=O)c3cccc4cccnc34)CC2)c1 | inconclusive: 6% [signal inhibitor] | –
49 | CC1CCCN(Cc2nc3c(c(=O)n(C)c(=O)n3C)n2Cc2ccc(Cl)cc2)C1 (centres undefined) | inconclusive: 0.153% [signal inhibitor] | –
50 | Cc1cc(C)cc(NC(=O)CSc2oc(-c3ccco3)nc2S(=O)(=O)c2ccc(Cl)cc2)c1 | inconclusive: 1.25% [signal inhibitor] | –
51 | Cc1cc(Br)ccc1NC(=O)CCNS(=O)(=O)c1cccc2nonc12 | inconclusive: 3.53% [signal inhibitor] | –
52 | Cc1ccsc1C1NC(=O)c2c(sc3c2CCN(C)C3)N1 (centres undefined) | inactive: -1.62% | –
53 | Cc1cccc(CNc2cc(-c3ccoc3)ncn2)c1 | inactive: -0.0177% [at 11.4 µM, scaled: untreated 0%, proteasome inhibitor 100%] | –
54 | COc1ccc(C(c2sc3ncnn3c2O)N2CC(C)OC(C)C2)cc1OC (centres undefined) | inactive: 12.1% | –
55 | CN(c1cccc(NC(=O)CCSc2ccccc2)c1)S(C)(=O)=O | inconclusive: -0.355% [signal inhibitor] | –
56 | CCn1c2ccccc2c2nnc(SCC(=O)c3ccccc3)nc21 | inactive: -7.66% | –
57 | O=C(Cn1cc(SCc2ccccc2F)c2ccccc21)N1CCCC1 | inconclusive: 5.96% [signal inhibitor] | –
58 | COC(=O)c1ccc(COc2ccc3c(C)c(C)c(=O)oc3c2)o1 | inconclusive: 13.5% [signal inhibitor] | –
59 | Oc1ccccc1-c1nnc(COc2ccccc2)o1 | – | inconclusive: 12.6 µM [signal inhibitor, partial curve]
60 | Cc1ccc(NC(=O)c2ccc(N(Cc3ccccc3)S(C)(=O)=O)cc2)cc1 | inactive: 4.74% | –
61 | COc1ccccc1N1C(=O)C2C3C=CC(C3)C2(C)C1=O (centres undefined) | inconclusive: 7.35% [signal activator] | –
62 | O=C(Nc1nc2c(s1)CCCC2)c1ccccc1F | – | inconclusive: 25.1 µM [signal inhibitor, partial curve]
63 | CN1CCN(c2ncc3nc(-c4ccc(F)cc4)c(=O)n(Cc4cccs4)c3n2)CC1 | inactive: 0.977% [at 11.4 µM, scaled: untreated 0%, proteasome inhibitor 100%] | –
64 | CC(C)c1ccc(C2=NC(c3ccncc3)=Nc3ccc(F)cc3N2)cc1 | inconclusive: -1.95% [signal inhibitor] | –
65 | O=C(O)C1CCCCC1C(=O)NCCCN1CCOCC1 (centres undefined) | inactive: 0.0295% | –
66 | Cc1nnc(SCC(=O)Nc2sccc2C(N)=O)n1Cc1ccccc1 | inactive: 0.471% | –
67 | CC(C)n1c(C(=O)OCC(=O)NCc2ccc3c(c2)OCO3)cc2sccc21 | inconclusive: 16.9% [signal inhibitor] | –
68 | CC(=O)c1ccc(NC(=O)c2noc3c2CCCCC3)cc1 | inactive: 0.977% | –
69 | COc1ccc(OC)c(CCNC(=O)c2nn(C)c3c2CSc2ccccc2-3)c1 | inactive: -0.357% | –
